Measured values published in a compilation of properties of binary mixtures (doi:10.1016/j.molliq.2018.08.031).
The densities may have been worked out from excess volumes.

Assay: xn = mol fraction of the nth substance listed
Settings: 100 kPa

COCCOCCOC + CCCC[n+]1ccn(C)c1.F[P-](F)(F)(F)(F)F
Settings | mass density [kg/m3]
283.15 K, x2 = 0.0571 | 995.4
283.15 K, x2 = 0.1013 | 1024.9
283.15 K, x2 = 0.2923 | 1132
283.15 K, x2 = 0.39 | 1177.2
283.15 K, x2 = 0.492 | 1219.3
283.15 K, x2 = 0.6827 | 1287.2
283.15 K, x2 = 0.9711 | 1371.7
293.15 K, x2 = 0.057 | 985.7
293.15 K, x2 = 0.1842 | 1065.5
293.15 K, x2 = 0.1982 | 1073.5
293.15 K, x2 = 0.2963 | 1124.8
293.15 K, x2 = 0.3149 | 1133.8
293.15 K, x2 = 0.3913 | 1168.8
293.15 K, x2 = 0.5865 | 1246
293.15 K, x2 = 0.5999 | 1250.8
293.15 K, x2 = 0.6644 | 1272.8
293.15 K, x2 = 0.6814 | 1278.5
293.15 K, x2 = 0.7968 | 1314.5
293.15 K, x2 = 0.8399 | 1327.4
293.15 K, x2 = 0.892 | 1342.1
303.15 K, x2 = 0.0995 | 1005
303.15 K, x2 = 0.1154 | 1015.2
303.15 K, x2 = 0.1958 | 1062.8
303.15 K, x2 = 0.1973 | 1063.9
303.15 K, x2 = 0.2994 | 1117.2
303.15 K, x2 = 0.4896 | 1200.7
303.15 K, x2 = 0.5893 | 1238.2
303.15 K, x2 = 0.6652 | 1264.5
303.15 K, x2 = 0.6884 | 1272.3
303.15 K, x2 = 0.8299 | 1316.1
303.15 K, x2 = 0.8923 | 1334
303.15 K, x2 = 0.9352 | 1345.1
303.15 K, x2 = 0.9596 | 1352.5
313.15 K, x2 = 0.057 | 967.4
313.15 K, x2 = 0.0943 | 992.4
313.15 K, x2 = 0.1995 | 1056
313.15 K, x2 = 0.2856 | 1101.2
313.15 K, x2 = 0.4877 | 1191.1
313.15 K, x2 = 0.6781 | 1260.3
313.15 K, x2 = 0.7994 | 1298.6
313.15 K, x2 = 0.8941 | 1325.9
313.15 K, x2 = 0.9553 | 1342.4
